Test results taken from US20250332197A1.
Changes are numbered by the printed parent chain.

B1: 1E7-mVH-HC (IgG1) mVL (antibody)
heavy: QVQLQQPGSELVKPGASVKLSCKASGYTFTSYWMHWVKQRPGQGLEWIGMIHPNSGSTNYNEKFKSKATLTVDKSSSTAYMQLSSLTSEDSAVYYCARRYYGSISPDYWGQGTTLTVSS[in this place human IgG1 constant region]
light: DIVMTQSPSSLSVTAGEKVTMSCKSSQSLLNSGNQKNYLTWYQQKPGQPPKLLIYWASTRESGVPDRFTGSGSGTDFTLTISSVQAEDLAVYYCQNDYSYPFTFGSGTKLEIKRTVAAPSVFIFPPSDEQLKSGTASVVCLLNNFYPREAKVQWKVDNALQSGNSQESVTEQDSKDSTYSLSSTLTLSKADYEKHKVYACEVTHQGLSSPVTKSFNRGEC
B2: 1E7-huVH3huVL2 (antibody, human IgG4 S228P, kappa)
heavy: QVQLVQSGAEVKKPGASVKVSCKASGYTFTSYWMHWVRQAPGQGLEWIGMIHPNSGSTNYNEKFKSRVTMTVDTSTSTAYMELSSLRSEDTAVYYCARRYYGSISPDYWGQGTTVTVSSASTKGPSVFPLAPCSRSTSESTAALGCLVKDYFPEPVTVSWNSGALTSGVHTFPAVLQSSGLYSLSSVVTVPSSSLGTKTYTCNVDHKPSNTKVDKRV[in this place human IgG4 Fc with S228P (EU numbers)]
light: DIQMTQSPSSLSASVGDRVTMTCKSSQSLLNSGNQKNYLTWYQQKPGKAPKLLIYWASTRESGVPSRFSGSGSGTDFTLTISSLQPEDFATYYCQNDYSYPFTFGGGTKLEIKRTVAAPSVFIFPPSDEQLKSGTASVVCLLNNFYPREAKVQWKVDNALQSGNSQESVTEQDSKDSTYSLSSTLTLSKADYEKHKVYACEVTHQGLSSPVTKSFNRGEC
B3: 1E7-huVH2huVL2 (antibody, human IgG4 S228P, kappa)
heavy: B2 heavy with V20L, V68A, M70L
light: B2 light
B4: 1B6-huVH3huVL1 (antibody, human IgG4 S228P, kappa)
heavy: QVQLVQSGAEVKKPGASVKVSCKASGYTFTDYNMHWVRQAPGQRLEWIGYINPNNGGTSYNQKFKGRVTITVDTSASTAYMELSSLRSEDTAVYYCVTTRYLAVWGQGTTVTVSSASTKGPSVFPLAPCSRSTSESTAALGCLVKDYFPEPVTVSWNSGALTSGVHTFPAVLQSSGLYSLSSVVTVPSSSLGTKTYTCNVDHKPSNTKVDKRV[in this place human IgG4 Fc with S228P (EU numbers)]
light: B2 light with Q3V, A13V, L30F, S66D, L84V, Y93F, F102L
B5: 1B6-huVH4-HC (IgG1) huVL3 (antibody)
heavy: QVQLVQSGAEVKKPGASVKVSCKASGYTFTDYNMHWVRQAPGQRLEWMGYINPNNGGTSYNQKFQGRVTITVDTSASTAYMELSSLRSEDTAVYYCVTTRYLAVWGQGTTVTVSS[in this place human IgG1 constant region]
light: B2 light with M21I, K24R, L30F, F102L
B6: 1B6-huVH4huVL3 (antibody, human IgG4 S228P, kappa)
heavy: B4 heavy with I48M, K65Q
light: B2 light with M21I, K24R, L30F, F102L
B7: 1E7-huVH3huVL1 (antibody, human IgG4 S228P, kappa)
heavy: B2 heavy
light: B2 light with Q3V, A13V, K48Q, A49P, S66D, L84V
B8: 1E7-huVH1huVL1 (antibody, human IgG4 S228P, kappa)
heavy: B2 heavy with V20L, A40R, R67K, V68A, M70L, T74K
light: B2 light with Q3V, A13V, K48Q, A49P, S66D, L84V
B9: 1B6-huVH3-HC (IgG1) huVL1 (antibody)
heavy: B5 heavy with M48I, Q65K
light: B2 light with Q3V, A13V, L30F, S66D, L84V, Y93F, F102L
B10: 1B6-huVH3-HC (IgG1) huVL3 (antibody)
heavy: B5 heavy with M48I, Q65K
light: B2 light with M21I, K24R, L30F, F102L

molecular target: Claudin18.2 on cells (A20~18.2 stable expression cell line; KATOIII-Claudin18.2 cells), P56856; assay: cell-based or functional assay

| The fluorescence intensity (MFI), internalization (pHrodo, FACS), antibody 2 µg/mL [MFI] | The proportion of internalized cells (%), antibody 2 µg/mL [%] | Binder |
| --- | --- | --- |
| 3480 | 7.07 | B1 |
| 2600 | 1.44 | B2 |
| 2640 | 1.54 | B3 |
| 6300 | 72.4 | B4 |
| 6990 | 73.8 | B5 |
| 3820 | 10.5 | B6 |
| 2750 | 2.07 | B7 |
| 3080 | 3.86 | B8 |
| 10000 | 81.6 | B9 |
| 9700 | 80.3 | B10 |
